B1: CPEB3 Ribozyme (parent)
chain: UAACAGGGGGCCACAGCAGAAGCGUUCACGUCGCAGCCCCUGUCAGAUUCUGGUGAAUCUGCGAAUUCUGCUGUAUAUCUC

The source gives no read counts; variants with many changes may rest on few reads.

These results are taken from the RNAGym collection of RNA variant scans (doi:10.1093/nar/gkz1192).

In this data set the parent is B1. Briefly: self-cleavage, relative activity (ratio to wild type); higher = more cleavage; in vitro, sequencing. In short, it runs like this: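 For each CPEB3 ribozyme variant, relative activity is its cleaved/total read fraction divided by the unmutated ribozyme's. Barcoded error-prone PCR libraries were transcribed by T7 RNA polymerase (5 hours, 37°C) and held in DNase I for 15 min before an EDTA stop, with cleavage occurring throughout. Template-switching reverse transcription and Illumina sequencing were used to read the RNAs. A 5-read minimum applied, and results are the mean of three batches.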
A20U U66G U74C: the self-cleavage amounted to 0.49.

For the variant A20U U26G C37U U67C U74C, the self-cleavage was 0.06.

As for A20G U25C A45C U54C U74C A75G, the self-cleavage was found to be 0.12.

For A21C U51A A57G C71G U78C U80C, the self-cleavage was found to be 0.04.

Take A20G G24A A45G: the self-cleavage came to 0.42.

Regarding A20U U31C A57G, the self-cleavage came to 0.08.

As for A20G A28G U51A, the self-cleavage is 0.31.

As to A20U U43C U66C U69A, the self-cleavage was determined as 0.21.

For the variant A20U A28C U66C, the self-cleavage was found to be 0.43.

A20G A28G U74C: the self-cleavage came out at 0.54.

As to A20G A28U G42A U58C, the self-cleavage was 0.18.

With A20U A28U A45G U76A, the self-cleavage amounted to 0.32.

As to A20G U41C C59U U69A, the self-cleavage amounted to 0.26.

With A20U U43C C71U, the self-cleavage is 0.15.

Regarding A20U A28G A47U U58C U72G, the self-cleavage came out at 0.28.

In the case of A20G A28G U58A U72A, the self-cleavage came out at 0.09.

In the case of A20G A35U U41C U78C, the self-cleavage is 0.38.

With A20G G46A A56G, the self-cleavage was 0.21.

As for A20U A21G G73A, the self-cleavage turned out to be 0.3.

Consider A20U A28G U51C, for which the self-cleavage was 0.15.

Consider A21C A65G A77G U80A, for which the self-cleavage came out at 0.17.

On to A20U C39A U41C A57G, for which the self-cleavage amounted to 0.13.

As for A20U U54C C59A A77U, the self-cleavage worked out at 0.17.

With A20U A28G U51A U69C, the self-cleavage amounted to 0.34.

Consider A20U A28G A56U U66C U78C, for which the self-cleavage is 0.17.

As to A20G U41C G46A G52C U60C A64G A65G, the self-cleavage came out at 0.06.

As to A20U U41C A77G, the self-cleavage turned out to be 0.27.

Consider A20G A56U U72C, for which the self-cleavage amounted to 0.51.

Take A20U G22C G63U U74C: the self-cleavage was determined as 0.25.

With A20G A28U A57G U60C, the self-cleavage came to 0.21.

As for A20U A45U A64G U66C, the self-cleavage came to 0.14.

On to A20G U41A U49C, for which the self-cleavage is 0.2.

Take A21C U25C A35G: the self-cleavage is 0.69.

For the variant A20U U41C A64U U72C A75G, the self-cleavage stood at 0.12.

For the variant A20G U25C A65U, the self-cleavage was found to be 0.32.

As for A20G U26C U31A G46A U51C, the self-cleavage was 0.07.

Take A20G C27U U31C A35G A45G U60A C62U: the self-cleavage was 0.02.

In the case of A20G U31C U48A, the self-cleavage is 0.14.

In the case of A20U U31C U41A U43C A57G A65G U78C, the self-cleavage was 0.05.

Regarding A20G A47G U49C, the self-cleavage came to 0.35.

Consider A20G U25A U26C U67C, for which the self-cleavage came out at 0.14.

For A20G A45C U60C A75U, the self-cleavage is 0.32.

On to A20G U41A U49C U67C U74C, for which the self-cleavage amounted to 0.1.

As to A20G U25A C50U U66C, the self-cleavage amounted to 0.15.

Regarding A20G G33A G61A, the self-cleavage was found to be 0.23.

With A20G U25C U31C U66C U67A U78C, the self-cleavage came out at 0.09.

For the variant A20G U26C G42C, the self-cleavage came out at 0.3.

Regarding A20G U41A U49C U67C A75G, the self-cleavage amounted to 0.1.

For the variant A20G A57G U60C A65U U78C, the self-cleavage turned out to be 0.12.

Turning to A20G U49C U66C A77G, the self-cleavage amounted to 0.13.

A20U U58G U60A A64U: the self-cleavage was 0.14.

Take A20G U67C U78C: the self-cleavage amounted to 0.85.

For the variant A20U A57G A77C, the self-cleavage was determined as 0.31.

For the variant A20U G36A G53C U66C, the self-cleavage is 0.08.

With A20U U26A G33A U48C U54G A64U, the self-cleavage is 0.06.

For A20U U31C A35U A64C, the self-cleavage stood at 0.1.

Take A21C A35G C44A U60C U69C U80A: the self-cleavage was 0.13.

With A20U A21G A45G U51C A64G, the self-cleavage was 0.24.

As for A21C C40A U41C A56U A64G, the self-cleavage is 0.14.

For the variant A20G A35G U43A, the self-cleavage was 1.3.

Consider A20U A56G U74A, for which the self-cleavage came to 0.4.

Regarding A20U A45G U58A, the self-cleavage turned out to be 0.06.

On to A20G U58C U60A, for which the self-cleavage amounted to 0.11.

With A21G A28G A35G U72C G73A, the self-cleavage worked out at 0.85.

As to A20U U49C A56G, the self-cleavage was 0.33.

For the variant A20U U41C A47G A57C, the self-cleavage is 0.14.

On to A20G C44U A57G U66C, for which the self-cleavage turned out to be 0.07.

Turning to A20G U51A U54A, the self-cleavage was 0.82.

As for A20G C32U U72A U80C, the self-cleavage worked out at 0.25.

With A20G G36U U80A, the self-cleavage was determined as 0.13.

Consider A20G U26C C29A U49C A64G, for which the self-cleavage stood at 0.14.

A20G U26A A35G U43C U54C: the self-cleavage was 0.41.

A20U U26A A45G A57C: the self-cleavage was found to be 0.17.

Consider A20G G42U U48C U49A, for which the self-cleavage turned out to be 0.14.

For A20G A35U C71A, the self-cleavage was 0.11.

With A20G U26C G55U U67A U69C, the self-cleavage stood at 0.15.

In the case of A20G U43A U67C, the self-cleavage was found to be 1.18.

In the case of A20G A47G U58A, the self-cleavage worked out at 0.37.

On to A20U C23U U26C C32U A65C, for which the self-cleavage was 0.14.

Consider A20G U25C U31C, for which the self-cleavage was 0.3.

In the case of A21C U25C U51G U72A A77G, the self-cleavage amounted to 0.09.

For A20G A45G U67C A75G, the self-cleavage stood at 0.42.

Regarding A20G A28U C29A U31A U60A A77G, the self-cleavage was 0.05.
